Experimental data: article PMC4336329 (PLoS ONE, 2015)
The whole screen tested about 310,000 compounds, of which about 2,200 (0.71%) showed an effect of 50% or more. The effect is printed as a negative number. Some of the results follow.

Target: human ether-à-go-go-related gene (hERG) potassium channel (human, UniProt Q12809)
Assay: primary screen, population patch clamp on CHO cells stably expressing hERG

human ether-à-go-go-related gene (hERG) potassium channel, sequence (Q12809 whole entry, looked up): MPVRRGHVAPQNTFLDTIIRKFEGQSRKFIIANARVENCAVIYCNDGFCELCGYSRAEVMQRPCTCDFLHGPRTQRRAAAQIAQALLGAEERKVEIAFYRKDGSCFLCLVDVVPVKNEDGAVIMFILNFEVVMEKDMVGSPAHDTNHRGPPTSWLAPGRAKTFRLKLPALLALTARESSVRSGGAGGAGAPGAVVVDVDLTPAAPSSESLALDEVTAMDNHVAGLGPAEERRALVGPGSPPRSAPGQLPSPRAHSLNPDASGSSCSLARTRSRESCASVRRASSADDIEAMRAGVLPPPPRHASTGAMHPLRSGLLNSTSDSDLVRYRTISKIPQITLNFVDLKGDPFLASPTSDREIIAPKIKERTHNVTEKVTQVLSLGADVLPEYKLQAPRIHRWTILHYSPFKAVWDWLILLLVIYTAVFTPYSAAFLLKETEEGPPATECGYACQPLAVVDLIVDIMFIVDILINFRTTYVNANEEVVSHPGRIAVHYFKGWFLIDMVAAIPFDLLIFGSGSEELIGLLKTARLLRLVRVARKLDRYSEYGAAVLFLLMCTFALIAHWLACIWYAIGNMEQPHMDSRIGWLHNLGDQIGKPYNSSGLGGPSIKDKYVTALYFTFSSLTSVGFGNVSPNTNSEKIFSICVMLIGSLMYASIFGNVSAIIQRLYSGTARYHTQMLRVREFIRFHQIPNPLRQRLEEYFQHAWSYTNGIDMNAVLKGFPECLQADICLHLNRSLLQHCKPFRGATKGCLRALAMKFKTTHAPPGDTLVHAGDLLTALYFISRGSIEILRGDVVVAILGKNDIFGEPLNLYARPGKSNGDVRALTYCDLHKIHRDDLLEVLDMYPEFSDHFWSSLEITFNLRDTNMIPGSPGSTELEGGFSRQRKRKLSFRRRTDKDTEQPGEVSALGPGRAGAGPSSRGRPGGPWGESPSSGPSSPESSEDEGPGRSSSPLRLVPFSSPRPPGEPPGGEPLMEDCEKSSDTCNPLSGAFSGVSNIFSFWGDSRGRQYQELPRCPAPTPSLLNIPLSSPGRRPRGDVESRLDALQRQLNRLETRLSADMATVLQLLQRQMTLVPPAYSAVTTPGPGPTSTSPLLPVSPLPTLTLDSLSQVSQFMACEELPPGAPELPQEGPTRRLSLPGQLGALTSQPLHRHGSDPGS

| Structure (SMILES) | hERG current change (%, negative = inhibition) at 1uM [%] |
| --- | --- |
| Cc1ccc(S(=O)(=O)NCCC(=O)Nc2ncccc2O)cc1C | 15.5 |
| Cc1ccc(S(=O)(=O)NCC(=O)N2CCc3ccccc3C2)cc1 | 7.38 |
| CCN(CC)CCn1c(SCC(=O)NCc2ccco2)nc2c(sc3ccccc32)c1=O | -50.4 |
| Cn1c(C(=O)Nc2ccc3c(c2)OCO3)cc2c(=O)n(C)c3ccccc3c21 | 9.7 |
| CCC(=O)N1CCc2cc(S(=O)(=O)NCCC(=O)Nc3ccc(OC)cc3)ccc21 | -6.48 |
| Fc1ccccc1Cn1nnc2c(NCCc3ccccn3)ncnc21 | 2.28 |
| COc1ccc(C2CC(c3cccs3)=NN2C(=O)CSc2nc(=O)n3ccc(C)cc3n2)cc1 (stereo not drawn) | 2.7 |
| O=C(COC(=O)C1CC2CCCC(C1)C2=O)NC1CCCCC1 (stereo not drawn) | 14.2 |
| C=CCSC1=N/C(=C\c2cc(OC)c3c(c2)OCO3)C(=O)S1 | 8.6 |
| CC1=C(c2ccc(C)cc2)S(=O)(=O)N(CC(=O)O)C1=O | -9.85 |
| O=S(=O)(c1ccc(F)cc1)N1CCN(C(=S)NC2CCCC2)CC1 | 9.1 |
| O=C(OCCCCOC(=O)c1ccccc1)c1ccccc1 | 13.6 |
| CCc1cccc2c1Sc1ccccc1CC2N1CCNCC1.CS(=O)(=O)O (stereo not drawn) | 10.2 |
| COc1ccc(-n2nc3c(N4CCC(C(=O)NCC(C)c5ccccc5)CC4)nnc(C)c3c2C)cc1 (stereo not drawn) | 8.32 |
| CC1CCCN(C(=O)c2ccc(OC3CCN(CCc4ccccc4)CC3)cc2)C1 (stereo not drawn) | -30.3 |
| O=C(NC12CC3CC(CC(C3)C1)C2)c1ccco1 | 7.87 |
| C/C(CC(=O)Nc1cccnc1)=N/NC(=O)COc1ccc(Cl)cc1Br | 10.5 |
| CCC/C(=N/Nc1ccc(Cl)cc1)c1cnnc(-c2ccccc2)n1 | -13.1 |
| CC(=O)Nc1ccc(Oc2cc(NC(C)=O)cc([N+](=O)[O-])c2)cc1 | 14.7 |
| CCCCCCOc1ccc(OC(=O)c2ccncc2)cc1 | 2.34 |
| CCOC(=O)N1CCN(S(=O)(=O)N2CCCC(C(=O)NCCCN3CC(C)CC(C)C3)C2)CC1 (stereo not drawn) | 13.7 |
| Cc1ccc(S(=O)(=O)N2CCN(C(=O)c3cccc(-n4cccc4)c3)CC2)cc1 | -8.86 |

| Structure (SMILES) | hERG current change (%, negative = inhibition) at 1uM [%] |
| --- | --- |
| COc1ccc(CCNC(=O)CSc2nnnn2C)cc1OC | 12.4 |
| COC(=O)C1=C(N)Oc2c(oc(CO)cc2=O)C1c1ccccc1F (stereo not drawn) | 12 |
| CCn1ncc([N+](=O)[O-])c1C(=O)Nc1ccc(C)c(C)c1 | 1.48 |
| COCCN(C(=O)CC1CCCC1)c1c(N)n(CC(C)C)c(=O)[nH]c1=O | 4.68 |
| COC(=O)C1=C(c2ccc(C(C)=O)cc2)C[C@@H]2CC[C@H]1N2C(=O)NCCNC(C)=O | 19.5 |
| Cc1ccc(CN2CCN(Cc3ccccc3F)CC2)cc1.O=C(O)C(=O)O | 10.4 |
| Cc1cc(C)c(NC(=O)COc2nc3ccccc3nc2C)c(C)c1 | 17.9 |
| CC1(C)CC(=O)C2=C(C1)OC(N)=C(C#N)C21C(=O)N2CCCc3cccc1c32 (stereo not drawn) | 17.6 |
| COc1ccccc1CNC(=O)CCS(=O)(=O)Cc1ccc(C)cc1 | 10.6 |
| O=C(C1CCN(S(=O)(=O)N2CCCC2)CC1)N1CCCCC1 | 11.4 |
| Cc1occc1-c1nnc(SCC(=O)c2cc3ccccc3oc2=O)o1 | 8.01 |
| CC(=O)NC(Cc1cccc(F)c1)C(=O)NC1CCN(C(=O)Nc2ccccc2)CC1 (stereo not drawn) | 15.1 |
| O=C(NNC(=O)c1cc(-c2cccc(Br)c2)nc2ccccc12)c1csc(N2CCOCC2)n1 | 5.7 |
| CCc1ccc(NC(=O)CSc2nnnn2C)cc1 | 19.7 |
| CCn1ncc([C@@H]2C[C@H]3CN(Cc4ccccc4C)C(=O)[C@]34CCCN24)c1C | 11.9 |
| Cc1ccc2c(c1)[C@@H]1CN(C)CC[C@@H]1N2S(=O)(=O)c1ccc([N+](=O)[O-])cc1.Cl | -36.1 |
| O=S(=O)(c1ccc(NC(=S)NCc2ccc(F)cc2)cc1)N1CCOCC1 | -5.23 |
| O=C(O)C1(c2ccccc2)CCN(S(=O)(=O)c2ccc(Br)cc2)CC1 | 14.4 |
| O=C(COC(=O)c1ncc(Cl)c(Cl)c1Cl)Nc1cccnc1Cl | 17.7 |
| C=CCn1c(SCC(=O)c2ccc(O)c(O)c2)nnc1-c1cccnc1 | 15.3 |
| Cc1ccc(C(=O)OCC(=O)Nc2cccc(S(=O)(=O)N3CCCCC3)c2)o1 | 11.7 |
| NC(=S)Cc1nc2n(n1)Cc1ccccc1-2 | 12.2 |

| Structure (SMILES) | hERG current change (%, negative = inhibition) at 1uM [%] |
| --- | --- |
| CCCCCCCNc1nc(Cl)nc(NCCO)n1 | 13.3 |
| Cc1cc(NC(=O)c2cc(-c3ccco3)on2)n(-c2ccccc2)n1 | 6.28 |
| COc1ccc(Cc2nnc(NC(=O)Cn3cnc4c3c(=O)n(C)c(=O)n4C)s2)cc1 | 12.9 |
| O=C(CCCc1nc(-c2ccccc2)no1)Nc1cccnc1 | 7.24 |
| CS(=O)(=O)N1CCN(C(=N)N[N+](=O)[O-])CC1 | 16.2 |
| COc1ccc(Cn2nnc3c(C)n[nH]c(=O)c32)cc1 | 17.3 |
| COc1ccc(CN2C3CCCC2CC(NC(=O)c2cccc(F)c2)C3)cc1 (stereo not drawn) | -85.9 |
| CC(C(=O)NCc1ccccc1Cl)n1cc([N+](=O)[O-])cn1 (stereo not drawn) | 14.5 |
| CCCc1nc2oc3cc(OC)ccc3c(=O)c2c(=O)n1CCc1ccccc1 | -4.03 |
| C=CCOc1ccc(/C=C/C(=O)OCC(=O)NCCCc2ccccc2)cc1 | -3.81 |
| O=C(NCCN1CCN(c2ccccc2)CC1)C1CCN(S(=O)(=O)c2cccc3nsnc23)CC1 | 16.4 |
| Cc1c(C(C)(C)C)c(C=S)n2ccccc12 | -9.18 |
| CC(OC(=O)c1cccc([N+](=O)[O-])c1)C(=O)NCc1ccc2c(c1)OCO2 (stereo not drawn) | 6.35 |
| Cc1cc(NC(=O)CN(C)S(=O)(=O)c2cnc[nH]2)ccc1Br | 9.32 |
| COC(=O)c1ccccc1NS(=O)(=O)c1c(C)noc1C | 10.2 |
| CC(C)(C)OC(=O)N[C@@H](COCc1ccccc1)C(=O)N[C@@H](CO)[C@H](O)[C@@H]1C[C@@H]1C(=O)N1CCCC1 | 14.3 |
| COCCN(CC(=O)Nc1ccccc1C)S(=O)(=O)c1ccc(S(=O)(=O)N2CCCC2)cc1 | 6.95 |
| Cn1c(=O)oc2cc(S(=O)(=O)NC3CCCCC3)ccc21 | 10.9 |
| COc1cc(CNCCc2ccc3c(c2)OCO3)ccc1O.Cl | 7.29 |
| COc1ccc([N+](=O)[O-])cc1NC(=O)N(C)Cc1ccco1 | 8.03 |
| CC(C)c1cccc(C(C)C)c1NC(=O)COC(=O)[C@H](C)NC(N)=O | 14.3 |
| CCC1CCCCN1C(=O)c1ccc2c(c1)C(=O)N(c1ccc(C)cc1)C2=O (stereo not drawn) | 7.87 |

| Structure (SMILES) | hERG current change (%, negative = inhibition) at 1uM [%] |
| --- | --- |
| CN1CCN(c2nc(-c3ccc(Cl)c(Cl)c3)nc3ccccc23)CC1 | 9.87 |
| CCOCC(=O)N1CCN(c2cccc(Cl)c2)CC1 | 8.86 |
| CCN(Cc1ccccc1)C(=O)COC(=O)c1c(C)nsc1NC | 3.28 |
| O=C(NCCOC(=O)c1ccccc1)c1ccc([N+](=O)[O-])cc1 | 6.79 |
| COC(=O)c1c(C)[nH]c(C(=O)C(C)OC(=O)C2CC2C)c1C (stereo not drawn) | 3.56 |
| CS(=O)(=O)Nc1nc2ccccc2[nH]1 | 15.7 |
| Cc1nc(-c2ccc(F)cc2)c(CC(=O)N(C)CC(=O)Nc2ccc(F)cc2)s1 | 9.44 |
| Cn1c(=O)[nH]c(=O)c2c1nc1n2CC(COc2ccc3ccccc3c2)O1 (stereo not drawn) | 5.27 |
| OC(CNCCc1c[nH]c2ccccc12)C(F)(F)F (stereo not drawn) | 0.293 |
| O=C(N/N=C/c1ccccc1)C1CCCN1C(=O)c1cc([N+](=O)[O-])cc([N+](=O)[O-])c1 (stereo not drawn) | 12.4 |
| CCCNS(=O)(=O)c1cc2c3c(c1)CCN3C(=O)CC2 | 14.8 |
| Cn1c(=O)n(CCC(=O)O)c2ccccc21 | 15.2 |
| O=S(=O)(NCC1CCCO1)c1ccc(S(=O)(=O)N2CCCC2)cc1 (stereo not drawn) | 13.3 |
| CC1CC(C)CN(C(=O)Cn2cc(C=O)c3ccccc32)C1 (stereo not drawn) | 9.78 |
| O=C(O)CSCC(=O)N1CCCN(c2nccc(C(F)(F)F)n2)CC1 | 13 |
| COc1ccc(NC(=S)N(CCCN2CCOCC2)C(C)c2cc3ccccc3o2)cc1 (stereo not drawn) | -63.1 |
| Cc1cccc(NC(=O)c2ccc(S(=O)(=O)N3CCOCC3)cc2)n1 | 21 |
| CNc1ccc(C(=O)OCC(=O)NCc2ccc3c(c2)OCO3)cc1[N+](=O)[O-] | 4.8 |
| C=C(C)C1CC=C(C)/C(=N/NC(=O)c2ccc(NC(=O)c3cccc(C)c3)cc2)C1 (stereo not drawn) | 11.9 |
| COc1ccc(S(=O)(=O)N2CCCC2)cc1C(C)C | 12.2 |
| O=C(NCCO)c1cccc(S(=O)(=O)N2CCCCC2)c1 | 11.1 |
